The record followed here is paper PMC4336329 (PLoS ONE, 2015).

Among all 310,000 compounds or so, about 14,000 (4.5%) showed an effect of 50% or more. Effects have a minus sign here. Some of the results follow.
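Also: peak tail current of the secondary pulse compared with the same well before compound.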

The target of this assay is human ether-à-go-go-related gene (hERG) potassium channel (human, UniProt Q12809). The experiment in a line: primary screen, population patch clamp on CHO cells stably expressing hERG.
Chain of human ether-à-go-go-related gene (hERG) potassium channel (Q12809 whole entry, looked up): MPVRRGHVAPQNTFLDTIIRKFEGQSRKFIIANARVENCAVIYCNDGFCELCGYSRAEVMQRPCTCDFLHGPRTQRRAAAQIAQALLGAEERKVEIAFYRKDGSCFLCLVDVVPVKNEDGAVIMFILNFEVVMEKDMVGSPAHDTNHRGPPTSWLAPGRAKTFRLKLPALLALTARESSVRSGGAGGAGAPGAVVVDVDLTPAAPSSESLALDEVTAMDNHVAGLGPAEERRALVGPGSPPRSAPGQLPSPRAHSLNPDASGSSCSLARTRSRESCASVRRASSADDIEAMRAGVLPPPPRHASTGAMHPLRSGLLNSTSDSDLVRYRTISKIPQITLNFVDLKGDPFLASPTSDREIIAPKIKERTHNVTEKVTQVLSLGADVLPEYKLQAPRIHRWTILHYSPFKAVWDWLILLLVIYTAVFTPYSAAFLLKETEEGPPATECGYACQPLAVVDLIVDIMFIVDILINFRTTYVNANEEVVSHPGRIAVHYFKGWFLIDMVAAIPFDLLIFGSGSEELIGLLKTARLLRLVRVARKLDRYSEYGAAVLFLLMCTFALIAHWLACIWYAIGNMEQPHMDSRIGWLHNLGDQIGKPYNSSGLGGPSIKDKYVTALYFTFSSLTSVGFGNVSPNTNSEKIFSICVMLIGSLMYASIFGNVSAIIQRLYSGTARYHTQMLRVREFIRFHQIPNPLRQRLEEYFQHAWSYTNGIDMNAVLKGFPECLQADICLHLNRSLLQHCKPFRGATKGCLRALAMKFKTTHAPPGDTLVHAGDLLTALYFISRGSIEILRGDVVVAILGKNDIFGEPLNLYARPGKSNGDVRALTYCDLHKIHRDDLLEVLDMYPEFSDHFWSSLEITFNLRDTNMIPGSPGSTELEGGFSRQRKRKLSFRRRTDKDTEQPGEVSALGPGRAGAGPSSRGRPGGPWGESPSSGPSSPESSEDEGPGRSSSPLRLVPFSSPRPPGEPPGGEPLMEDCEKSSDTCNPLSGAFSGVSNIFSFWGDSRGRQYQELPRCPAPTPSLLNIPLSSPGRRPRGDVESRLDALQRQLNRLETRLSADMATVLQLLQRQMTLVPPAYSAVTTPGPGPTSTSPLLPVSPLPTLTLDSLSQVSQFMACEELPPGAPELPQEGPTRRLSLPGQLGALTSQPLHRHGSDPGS
For the compound `CCOC(=O)c1ccc(Oc2nc(NC)nc(Nc3ccccc3)n2)cc1`, the “hERG current change (%, negative = inhibition) at 10uM” value is -32.8%.
In the case of `CCn1c(/C=C/c2ccc(O)cc2)nc2ccccc2c1=O`, the “hERG current change (%, negative = inhibition) at 10uM” value was found to be 10.2%.
Consider `Cc1ccc(/C=N/NC(=O)COc2ccc(Cl)c(C)c2)o1`, for which the “hERG current change (%, negative = inhibition) at 10uM” value came to 34.7%.
With `Cc1ccc(NC(=O)CCc2c(C)nn(-c3ccc(N4CCOCC4)nn3)c2C)cc1F` the figure was -10.2%; with `COc1cc(/C=C/C(=O)OCC(=O)Nc2ccc(C)cc2[N+](=O)[O-])ccc1O`, -20.5%; with `O=C(NC(=S)Nc1ccc(Cc2ccncc2)cc1)c1ccccc1Cl`, 5.52%.
With `COc1ccc(N(C)C(=O)Cc2c(C(=O)O)n(C)c3ccccc23)cc1` the figure was 27.3%.
For `O=C(c1ccco1)N1CCN=C1SCc1ccccc1Cl`, the “hERG current change (%, negative = inhibition) at 10uM” value was -21.4%.
With `Cc1nc2ccn(Cc3ccccc3)c(=O)c2cc1C(=O)N1CCN(c2ccc(F)cc2)CC1` the figure was -78.5%.
The value for `CN1CCCN(C(=O)c2cccc3ccccc23)CC1` was 7.9%.
The value for `O=C(O)CCC(=O)Nc1cccc(-c2csc(-c3ccccc3)n2)c1` was 4.06%.
In the case of `Cc1cc(OC(C)C(=O)NCc2ccccn2)c2c(C)c(Cc3ccccc3)c(=O)oc2c1` (stereo not drawn), the “hERG current change (%, negative = inhibition) at 10uM” value is -0.744%.
With `CC1(C)CC(CCN(Cc2ccccc2)C(=O)c2ccco2)(c2ccccc2)CCO1` (stereo not drawn) the figure was 4.47%; with `CCN(CC)C(=O)Cn1cc(C=C2C(=O)N(C)C(=O)N(C)C2=O)c2ccccc21`, 9.96%; with `Cc1ccc(NC(=O)CCc2ccc(C)o2)c(C)c1`, 9.83%.
The value for `CCCn1nc2ccccc2c1P(=O)(N1CCOCC1)N1CCOCC1` was 3.81%.
The value for `Cc1ccc2nc(N=C(N)N)nc(C)c2c1` was 18.3%; that for `Fc1ccc(Nc2nc(Oc3ccccc3F)nc(N3CCCC3)n2)cc1` was 11.9%; that for `O=C(Nc1ccc(SC(F)F)cc1)c1ccccc1F` was 12%.
As for `O=C1CN(CC(=O)N2CCOCC2)c2ccccc2O1`, the “hERG current change (%, negative = inhibition) at 10uM” value is given as 10.7%.
On to `Cl.OC(CNC1CCCC1)COc1ccccc1Br` (stereo not drawn), for which the “hERG current change (%, negative = inhibition) at 10uM” value was found to be 7.79%.
With `O=C(N/N=C/c1ccccc1Cl)c1nc2ccc([N+](=O)[O-])cc2c(=O)[nH]1` the figure was -23.2%.
As for `COc1ccc2c(c1)C(=O)CC(c1ccc3c(c1)OCCO3)O2` (stereo not drawn), the “hERG current change (%, negative = inhibition) at 10uM” value is 14.2%.
With `O=C(O)c1ccccc1C1=Nc2ccc(O)cc2Oc2cc(O)ccc21` the figure was 13.8%; with `COc1cccc(N2CCN(CC(=O)C34CC5CC(CC(C5)C3)C4)CC2)c1`, 13.8%.
The value for `C=CCN(CC=C)C(=O)C(=O)c1cc(C)n(-c2ccc([N+](=O)[O-])cc2)c1C` was -63.4%; that for `CCCCN(C(=O)CSc1ncn[nH]1)c1c(N)n(Cc2ccccc2)c(=O)[nH]c1=O` was 12.1%.
With `Cc1ccc(Br)cc1S(=O)(=O)Nc1cccnc1` the figure was 22.1%; with `O=C(NCCS(=O)(=O)N1CCCCCC1)c1ccccc1`, -5.12%.
In the case of `CCCCN(C)C(=S)Nc1ccc(Oc2ccccc2)cc1`, the “hERG current change (%, negative = inhibition) at 10uM” value is recorded as -2.38%.
As for `O=C(Nn1cnnc1)c1ccccc1CCc1ccccc1`, the “hERG current change (%, negative = inhibition) at 10uM” value came out at 3.69%.
With `CCNS(=O)(=O)c1ccc(CCC(=O)Nc2ccc(C(=O)OC)cc2)cc1` the figure was 13.1%; with `O=C(COc1ccccc1Br)NCCc1nc2ccccc2[nH]1`, -65.3%; with `C#CCOCCOCCOCCNc1nc(N2CCN(C(=O)CCCCCCCCCCNC(=O)[C@@H](CCSC)n3cc(CCO)nn3)CC2)nc(N2CCN(C(=O)CCCCCCCCCCNC(=O)[C@H](CCC(=O)O)n3cc(CCCCCN)nn3)CC2)n1`, -7.71%.
For `Cc1cc(C)c(NC(=O)COC(=O)c2cc([N+](=O)[O-])ccc2N2CCOCC2)c(C)c1`, the “hERG current change (%, negative = inhibition) at 10uM” value is 17.2%.
The value for `O=C(NCC1CC1)c1ccc2c3n(nc2c1)-c1ccccc1CO3` was -17.1%.
The value for `COC(=O)C(c1ccccc1)N1CCCCCC1.Cl` (stereo not drawn) was 10.8%; that for `CS(=O)(=O)N(CCc1ccccc1)CC(=O)N1CCc2ccccc2C1` was -33.2%.
With `O=C(Nc1ccc(S(=O)(=O)Nc2nccs2)cc1)c1cc(-c2ccccn2)nc2ccccc12` the figure was 4.36%.
As to `CCN(CC(=O)Nc1ccccc1C(F)(F)F)C(=O)c1ccc2c(=O)n3c(nc2c1)CCC3`, the “hERG current change (%, negative = inhibition) at 10uM” value was -2.85%.
With `O=[N+]([O-])c1ccc(/C=N/n2cn[nH]c2=S)cc1` the figure was 33%; with `O=C(CN1CCN(Cc2ccccc2)C1=O)NCc1cccs1`, 1.2%.
The value for `COc1ccc(N(CC(O)CN2C(=O)NC(C)(C)C2=O)S(=O)(=O)c2ccc(C)cc2)cc1` (stereo not drawn) was -11.6%; that for `CC1(C(=O)Oc2ccccc2)Cc2ccccc2C(=O)O1` (stereo not drawn) was -8.04%.
The value for `CCCc1cc(=O)oc2cc(C)cc(OCC(=O)Nc3ccccn3)c12` was 13.2%.
With `CCOC(=O)C1CCN(C(=O)CN2C(=O)c3cccnc3Oc3ccccc32)CC1`, the “hERG current change (%, negative = inhibition) at 10uM” value was 6.87%.
The value for `Cc1ccc(-n2c(Cc3cccn3C)nnc2SCC(=O)NCc2ccc3c(c2)OCO3)cc1` was -36%; that for `O=C(c1ccc(CS(=O)Cc2ccc(Cl)cc2)o1)N1CCN(c2ccccc2F)CC1` (stereo not drawn) was -55.8%; that for `O=C(NCCc1ccccc1)c1cnc(Cl)c(Cl)c1` was 11.9%.
The value for `CCO[C@H]1OC(C(=O)NCc2ccccc2)=C[C@@H](C)[C@@H]1CCCO` was -9.84%.
The value for `Cc1cc(C(=O)N/N=C/c2cc(Br)cc(Br)c2OC(=O)c2ccccc2)n[nH]1` was 16.2%; that for `Cc1ccc(CC(=O)Nc2ccc(Cl)cn2)cc1` was 5.57%.
Take `CCN(CC)c1ccc(NC(=O)/C=C\c2ccccc2Cl)cc1`: the “hERG current change (%, negative = inhibition) at 10uM” value came out at 0.239%.
The value for `CCc1nc(NCCCN2CCOCC2)c2oc3ccccc3c2n1` was -26.6%.
